Source: a compilation of properties of binary mixtures (doi:10.1021/je060123k)
Some of these densities may be calculated back from excess volumes.

Assay: xn = mol fraction of the nth substance listed
Details: 101 kPa

CCCO + CCCCCCCCn1cc[n+](C)c1.[Cl-]
x1 = 1
Details	mass density [kg/m3]
298.15 K	799.5
313.15 K	787.3
328.15 K	774.6

CCO + CCCCCCCCn1cc[n+](C)c1.[Cl-]
x1 = 1
Details	mass density [kg/m3]
298.15 K	785.1
313.15 K	772.1
328.15 K	758.6

CO + CCCCCCCCn1cc[n+](C)c1.[Cl-]
x1 = 1
Details	mass density [kg/m3]
298.15 K	786.6
328.15 K	757.9

CCCCCCCCn1cc[n+](C)c1.[Cl-] + CCCO
mass density [kg/m3]
Details	298.15 K	313.15 K	328.15 K
x2 = 0	–	1000.2	–
x2 = 0.1071	1001.1	992.4	–
x2 = 0.2407	989.7	980.9	–
x2 = 0.3036	983.6	974.7	–
x2 = 0.407	971.6	–	953.6
x2 = 0.4887	960.6	951.5	942.4
x2 = 0.6209	938.1	928.6	–
x2 = 0.7248	–	904.9	–
x2 = 0.8516	875.6	865.1	854.5
x2 = 0.9024	–	843.9	832.9
x2 = 0.94	836.5	825.2	–
x2 = 0.9729	817.8	806.1	–

CCCCCCCCn1cc[n+](C)c1.[Cl-] + CCO
mass density [kg/m3]
Details	x2 = 0	x2 = 0.0449	x2 = 0.1305	x2 = 0.2969	x2 = 0.4753	x2 = 0.6858	x2 = 0.8809	x2 = 0.917	x2 = 0.955	x2 = 0.9794
298.15 K	1008.8	–	–	988.5	969.8	933.5	868.6	849.1	824.1	804.6
313.15 K	1000.2	997.6	992.2	979.6	960.8	–	857.7	837.7	812.1	–
328.15 K	991.7	–	983.6	971	951.7	–	–	826.2	799.9	–

CCCCCCCCn1cc[n+](C)c1.[Cl-] + CO
mass density [kg/m3]
Details	298.15 K	313.15 K	328.15 K
x1 = 0.0197	–	800.1	786.6
x2 = 0	1008.8	1000.2	991.7
x2 = 0.0565	1006.9	998.3	989.7
x2 = 0.1686	1002.4	993.7	985
x2 = 0.2638	997.7	988.9	980.2
x2 = 0.3525	–	983.2	974.5
x2 = 0.4395	–	976.5	–
x2 = 0.5589	–	–	954.9
x2 = 0.7536	939.2	929.2	919.2
x2 = 0.8231	918.1	–	–
x2 = 0.8713	–	886.3	875.3
x2 = 0.8813	–	881	869.8
x2 = 0.9236	866.3	854.4	842.5
x2 = 0.9436	850.4	838.2	825.8
